# Results from the RNAGym collection of RNA variant scans (doi:10.7554/elife.90254).
# Read counts are not given, so values of variants with three or more changes are uncertain.
# B1: LINE1-full (parent)
# chain: UACGUAGGUGGUUUUCCCCUGAUAGUGCUAAGGGGGCCUGGAAGUUUGGACUGGGCAGAGCUCAACACAGCGUGGCAAAGUGGCUGUGGCUAGACUGCCUCUCUGGAUUCCUCGUCACUCAGCAGGGCAUCUCUGAGAGAAAUGCC
# Variants of: B1
# Assay: self-cleavage, relative activity (ratio to wild type); higher = more cleavage; in vitro, sequencing; the parent is a self-cleaving ribozyme
row,Variant,self-cleavage
1,UACGUAGGUGGUUUUCCCCCGAUAGUGCUAAGGGGGCCUGGAAGCUUGGACUGGGCGGAGCUCAACACAGCGUGGCAAAGUGGCUGUGGCUAGACUGCCUCUCUGGAUUCCUCGUCACUCAGCAGGGCAUCUCUGAGAGAAAUGCC,0.5
2,UACGUAGGUGGUUUUCCCCCGAUAGUGCUAAGGGGGCCUGGAAGUUUGGACUGGGCAGAGCUCAACACAGCGUGGCAAAGUGGCCGUGGCUAGACUGCCUCUCUGGAUUCCUCGUCACUCAGAAGGGCAUCUCUGAGAGAAAUGCC,0.29
3,UACGUAGGUGGUUUUCCCCCGAUAGUGCUAAGGGGGCCCGGAGGUUUGGACUGGGCAGAGCUCAACACAGCGUGGCAAAGUGGCUGUGGCUAGACUGCCUCUCUGGAUUCCUCGUCACUCAGCAGGGCAUCUCUGAGAGAAAUGCC,1.59
4,UACGUAGGUGGUUUUCCCCCGAUAGUGCUAAGGGGGCCUGGAAGUUUGGACUGGGCAGAGCUCAACACAGCGUGGCAAAGGGGCUGUGGCUAGACUGCCUCUCUGGAUUCCUCGUCGCUCAGCAGGGCAUCUCUGAGAGAAAUGCC,0.77
5,UACGUAGGUGGUUUUCCCCCGAUAGUGCUAAGGGGGCCUGGAAGUCUGGACUGGGCAGAGCUCAACACAGCGUGGCAAAGUGGCUGUGGCUAGACUGCCUCUCUGGAUUCCUCGUCACUCAGCAGGGCAUCCCUGAGGGAAAUGCC,1.6
6,UACGUAGGUGGUUUUCCCCCGAUAGUGCUAAGGGGGCCUGGAAGUUUGGACUGGGCAGAGCCCAACACAGCGUGGCAAAGUGGCUGUGGCUAGACUGCCUCUCUGGAUUCCUCGUCACUCAGCAGGGCAUCUCUGAGAGAAAAGCC,0
7,UACGUAGGUGGUUUUCCCCCGAUAGUGCUAAGGGGGCCUGGAAGUUUGGACUGGGCAGAGCCCAACACAGCGUGGCAAAGUGGCUGUGGCUAGACUGCCUCUCUGGAUUCCUCGUCACUCAGCAGGGCAUCUCUGAGAGAAACGCC,0.12
8,UACGUAGGUGGUUUUCCCCCGAUAGUGCUAAGGGGGCCUGGAAGUUUGGACCGGGCAGAGCUCAAUGCAGCGUGGCAAAGUGGCUGUGGCUAGACUGCCUCUCCGGAUUCCUCGUCACUCAGCAGGGCAUCUCUGAGAGAAAUGCC,0.24
9,UACGUAGGUGGUUUUCCCCCGAUAGUGCUAAGGGGGCCUGGAAGUUUGGACUGGGCAGAGCUCAACACAGCGAGGCAAAGUGGCUGUGGCUGGACUGCCUCUCUGGAUUCCUCGUCACUCAGCAGGGCAUCUCUGAGGGAAAUGCC,0.29
10,UACGUAGGUGGUUUUCCCCCGAUAGUGCUAAGGGGGCCUGGAAGUUCGGACUGGGCAGAGCUCAACAUAGCGUGGCAAAGUGGCGGUGGCUAGACUGCCUCUCUGGAUUCCUCGUCACUCAGCAGGGCAUCUCUGAGAGAAAUGCC,0.12
11,UACGUAGGUGGUUUUCCCCCGAUAGUGCUAAGGGGGCCUGGAAGAUUGGACUGGGCAGAGCUCAACACAGCGUGGCAAAGUGGCUGUGGCUAGACUGCCUCUCUGGAUCCCUCGUCACUCAGCAGGGCAUCUCUGAGAGAAAUGCC,0.95
12,UACGUAGGUGGUUUUCCCCCGAUAGUGCUAAGGGGGCCUGGAAGUUUGGACUGGGCAGAGCUCAACACAGCGUGGCAAAGUGGCUGCGGCUAGACUGCCUCUCUGGAUUCCUCGUCACUCAGCAGGGCGUCUCUGAGUGAAAUGCC,0
13,UACGUAGGUGGUUUUCCCCCGAUAGUGCUAAGGGGGCCUGGAAGUUUGGACUGGGCAGAGCUCAACACAGCGUGGCAAAGUGGCCGUGGCUAGACAGCCUCUCCGGAUUCCUCGUCACUCAGCAGGGCAUCUCUGAGAGAAAUGCC,0
14,UACGUAGGUGGUUUUCCCCCGAUAGUGCUAAGGGGGCCUGGAAGUUUGGACUGGGCAGAGCUCAACACAGCGCGGCAAAGUGGCUGUGGCUAGACUGCCUCUCUGGAUUCCUCGUCACUCAGCAGGGCAUCUCUGAGAGAGGUGCC,1.53
15,UACGUAGGUGGUUUUCCCCCGAUAGUGCUAAGGGGGCCUGGAAGUUUGGACUGGGCAGAGCUCAACACAGCGUGGCAAAGGGGCUGUGGCUAGACUGCCUCUCUGGAUCCCUCGUCACUCAGCAGGGCAUCUCUGAGAGAAGUGCC,0.82
16,UACGUAGGUGGUUUUCCCCCGAUAGUGCUAAGGGGGCCUGGAAGUUUGGACUGGGCAGAGCUCAACACAGCGUGGCAAAGUGGCUGGGGCUAGACUGCCUCUCAGGAUUCCUCGUCACUCAGCAGGGCAUCUCUGAGAGAAAUGCC,0.26
17,UACGUAGGUGGUUUUCCCCCGAUAGUGCUAAGGGGGCCCGGAAGUUUGGACAGGGCAGAGCUCAACACAGCGUGGCAAAGUGGCUGUGGCUAGACUGCCUCUCUGGAUUCCUCGUCACUCAGCAGGGCAUCUCUGAGAGAAAUGCC,2.26
18,UACGUAGGUGGUUUUCCCCCGAUAGCGCUAAGGGGGCCUGGAAGUUUGGACUGGGCAGAGCUCAACACAGCGUGGCAAAGUGGCUGUGGCUAGACUGCCUCUCUGGAUUCCUCGUCACUCAGCAGGGCAUCACUGAGAGAAAUGCC,1.75
19,UACGUAGGUGGUUUUCCCCCGAUAGUGCUAAGGGGGCCUGGAAGCUCGGACUGGGCAGAGCCCAACACAGCGUGGCAAAGUGGCUGUGGCUAGACUGCCUCUCUGGAUUCCUCGUCACUCAGCAGGGCAUCUCUGAGAGAAAUGCC,0
20,UACGUAGGUGGUUUUCCCCCGAUAGUGCUAAGGGGGCCCGGAAGUUUGGACUGGGCAGAGCUCAACACAGCGUGGCUAAGUGGCUGUGGCUAGGCUGCCUCUCUGGAUUCCUCGUCACUCAGCAGGGCAUCUUUGAGAGAAAAGCC,0.35
